# Source: PubChem BioAssay AID1476 (National Center for Advancing Translational Sciences (NCATS), 2009)
# The whole screen tested about 200,000 compounds, of which about 4,500 (2.2%) were called active. The shares of active, inactive and inconclusive entries below differ from those in the screen. The call rests on the fitted dose curve; in most records, active means well fitted inhibition curve with a large enough effect; inconclusive means small, poorly fitted or top-dose-only effect, or effect the other way; inactive means flat fitted curve, though single readings scatter. A potency beside an inconclusive call is a rough fit, not a confirmed value.
# Target: Cruzipain (Trypanosoma cruzi) (UniProt P25779)
# Experiment: qHTS Assay for Promiscuous and Specific Inhibitors of Cruzain (without detergent); further: nearly all actives have a fitted effect of over 40% in size;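 on max response, negative = inhibition: plate controls were enzyme without inhibitor for no effect and buffer without enzyme for full effect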
# Settings: purified cruzain, Z-FR-AMC fluorescence, no detergent
# Method in brief: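 Detergent-free condition (0.00005% Triton X-100) in acetate buffer pH 5.5 with DTT. 1.5 nM enzyme and compound were pre-mixed 15 min, then 2 uM Z-FR-AMC substrate added; reaction progress from fluorescence change between first and third reads (60 s).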
# Potency means the concentration at half of the fitted maximal effect; tags describe the fitted curve by direction and shape.
# UniProt P25779, sequence (P25779 whole entry, looked up): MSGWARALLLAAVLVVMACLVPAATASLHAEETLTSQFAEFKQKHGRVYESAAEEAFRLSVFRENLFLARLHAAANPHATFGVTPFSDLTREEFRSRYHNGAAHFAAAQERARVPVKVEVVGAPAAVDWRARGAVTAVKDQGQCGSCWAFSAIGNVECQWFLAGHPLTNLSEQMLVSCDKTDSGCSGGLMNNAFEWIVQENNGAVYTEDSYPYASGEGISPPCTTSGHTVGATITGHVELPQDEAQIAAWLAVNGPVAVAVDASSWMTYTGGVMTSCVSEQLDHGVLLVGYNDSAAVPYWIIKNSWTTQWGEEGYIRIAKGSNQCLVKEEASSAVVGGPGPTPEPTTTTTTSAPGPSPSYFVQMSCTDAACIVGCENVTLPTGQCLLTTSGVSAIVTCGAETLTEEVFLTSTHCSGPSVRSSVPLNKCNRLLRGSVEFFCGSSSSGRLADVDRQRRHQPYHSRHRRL
SMILES,"max response, negative = inhibition",Potency
O=c1[nH]cnc2c1ncn2C1CC(O)C(CO)O1 (configuration not stated),inactive: 1.15%,–
CCOC(=O)CNc1nc2ccccc2n2c(C)nnc12,–,"inconclusive: 10 µM [activator, partial curve, poor fit]"
O=C(c1ccc2c(c1)CCN2S(=O)(=O)c1ccccc1)N1CCN(c2cccc(Cl)c2)CC1,–,"inconclusive: 39.8 µM [inhibitor, single point]"
Cc1cccc(OC2(c3ccccc3)OC(=O)c3ccccc32)c1C (configuration not stated),–,"inconclusive: 39.8 µM [inhibitor, single point]"
COc1ccc(OC)c(NC(=O)Cn2c(=O)n(CC3CCCO3)c(=O)c3cc(OC)c(OC)cc32)c1 (configuration not stated),–,"inconclusive: 39.8 µM [activator, single point]"
O=C(Nc1ccccc1N1CCN(C(=O)c2ccccc2)CC1)c1cc(Br)ccc1Cl,–,"inconclusive: 39.8 µM [inhibitor, single point]"
COC(=O)[C@@]1(Cc2ccc(F)cc2)[C@H]2c3cc(C(=O)N(C)C)n(Cc4cccc5ccccc45)c3C[C@H]2CN1C(=O)c1ccccc1,–,"inconclusive: 25.1 µM [activator, partial curve]"
Cc1cccc(Nc2c(-c3cccs3)nc3nc(C)cc(C)n23)c1,–,"inconclusive: 39.8 µM [activator, single point]"
COc1cc(C(=O)OC(C)C(=O)N2CCc3ccccc3C2)ccc1OCC(=O)N1CCOCC1 (configuration not stated),–,"inconclusive: 39.8 µM [activator, single point]"
Clc1ccc2nc(NCc3ccccc3)c3nncn3c2c1,inactive: 3.96%,–
Cc1ccc(NC(=O)CCC(=O)NNC(=O)COc2cccc3ccccc23)c(C)c1,–,"inconclusive: 39.8 µM [inhibitor, single point]"
Cc1c(Cl)cccc1NC(=O)Cn1cc(C(=O)C2CCCCC2)c2ccccc21,–,"inconclusive: 12.6 µM [inhibitor, single point]"
COc1ccc(C(=O)NCC(=O)N/N=C/C(C)=C/c2ccccc2)cc1OC,–,"inconclusive: 39.8 µM [activator, single point]"
COc1ccc(C2CC(c3ccccc3)=NN2C(=O)COC(=O)c2ccc(Cl)nc2)cc1 (configuration not stated),inactive: -27.6%,–
Cc1ccc(NC(=O)CSC2=Nc3ccccc3C3=NC(Cc4ccccc4)C(=O)N23)cc1C (configuration not stated),inactive: -20.6%,–
CC(=O)c1ccc(-c2nc3ccccc3n2C)o1,–,active: 15.8 µM
Cc1cc2c(cc1S(=O)(=O)CCC(=O)N1CCCC(C)C1)OCC(=O)N2 (configuration not stated),–,"inconclusive: 39.8 µM [activator, single point]"
CN(C)c1ccc(-c2nc3cnccn3c2Nc2cccc(C(F)(F)F)c2)cc1,inactive: 0.0637%,–
COc1ccc(NC(=O)Cn2c(=O)n(Cc3ccco3)c(=O)c3cc(OC)c(OC)cc32)cc1,inactive: -3.09%,–
Cc1cc2cc(C)c3nnc(SCC(=O)N4CCCc5ccccc54)n3c2cc1C,–,"inconclusive: 39.8 µM [activator, single point]"
C(=C\c1ccccc1)/C=N/Nc1nncc(-c2ccccc2)n1,–,"inconclusive: 39.8 µM [inhibitor, single point]"

SMILES,"max response, negative = inhibition",Potency
O=C(CSCC(=O)N1CCN(c2ccccc2)CC1)Nc1nc(-c2ccc(Cl)s2)cs1,–,"inconclusive: 39.8 µM [inhibitor, single point]"
CCOC(=O)c1c(C(=O)OCC)c(C)n(CCc2ccc(OC)c(OC)c2)c1C,–,"inconclusive: 31.6 µM [activator, single point]"
CCc1ccc(CNC(=O)C2CCN(c3nc4ccccc4nc3C(F)(F)F)CC2)cc1,inactive: -15.2%,–
COc1cccc(C(=O)N2CCN(Cc3ccccc3C(F)(F)F)CC2)c1,–,"inconclusive: 31.6 µM [activator, single point]"
COc1ccc(Cn2c(CCC(=O)Nc3cccc(OC)c3)nc3cccnc32)cc1,inactive: 23.4%,–
CCCc1nnc(NC(=O)CCC(=O)N2CCN(C3c4ccccc4-c4ccccc43)CC2)s1,–,"inconclusive: 25.1 µM [activator, single point]"
Cc1ccc(S(=O)(=O)NCC(c2ccc(N(C)C)cc2)N2CCc3ccccc32)cc1C (configuration not stated),inactive: 0.821%,–
CC1CCCCN1CCCNC(=O)c1[nH]c2ccccc2c1Sc1ccc(Cl)cc1 (configuration not stated),–,"inconclusive: 31.6 µM [inhibitor, single point]"
O=c1[nH]c(N2CCN(c3ccccc3)CC2)nc2c1CCCC2,–,"inconclusive: 5.01 µM [inhibitor, full curve, poor fit]"
CCNc1ccc(C(=O)OCC(=O)NCc2ccccc2Cl)cc1[N+](=O)[O-],–,"inconclusive: 39.8 µM [inhibitor, single point]"
Cc1ccc(NC(=O)CCC(=O)NNC(=O)COc2ccccc2)c(C)c1,inactive: -6.63%,–
CC1CCN(C(=O)c2cc3c(=O)n(C)c4ccccc4c3s2)CC1,–,"inconclusive: 39.8 µM [activator, single point]"
CCOC(=O)C1CCN(C(=O)CN2c3ccc(C(C)C)cc3-c3ccccc3S2(=O)=O)CC1,–,"inconclusive: 31.6 µM [activator, single point]"
O=C(CSc1nnc(CNc2ccc(F)cc2)n1Cc1ccccc1)NCc1ccco1,–,"inconclusive: 25.1 µM [activator, single point]"
Cc1ccc(NC(=O)Cn2nnc(-c3nc(-c4ccncc4)no3)c2N)c(C)c1,inactive: 7.61%,–
N#Cc1cncc(-c2ccc3c(c2)OCCOCCOCCOCCOCCO3)n1,inactive: -15.2%,–
COC(=O)[C@@]1(Cc2ccccc2)[C@H]2c3cc(C(=O)N4CCCC4)n(Cc4ccccn4)c3C[C@H]2CN1C(=O)c1ccccc1,–,"inconclusive: 20 µM [activator, partial curve]"
CCOC(=O)N1CCN(C(=O)CN(Cc2ccc(Cl)cc2)S(=O)(=O)c2ccc(C)cc2)CC1,–,"inconclusive: 31.6 µM [activator, single point]"
CCc1ccc(NCc2cc3ccc(OC)cc3n(CC(=O)Nc3ccc(C(C)C)cc3)c2=O)cc1,–,"inconclusive: 25.1 µM [inhibitor, partial curve]"
COc1ccc(NS(=O)(=O)c2cccc(NC(=O)c3ccc(S(=O)(=O)N4CCCCCC4)cc3)c2)cc1,–,"inconclusive: 39.8 µM [inhibitor, single point]"
CCC(=O)NCCC1CCc2ccc3c(c21)CCO3 (configuration not stated),–,"inconclusive: 25.1 µM [activator, partial curve]"

SMILES,"max response, negative = inhibition",Potency
O=C(CNS(=O)(=O)c1ccccc1)OCC(=O)c1ccc([N+](=O)[O-])cc1,–,"inconclusive: 25.1 µM [inhibitor, single point]"
COC(=O)c1ccc2c(=O)n(CC3CCCO3)c(SCC(=O)Nc3ccccc3OC)nc2c1 (configuration not stated),–,"inconclusive: 31.6 µM [activator, single point]"
Cc1ccc(-c2cc(NC(=O)CSc3n[nH]c(N)n3)n(-c3ccccc3)n2)cc1,–,"inconclusive: 39.8 µM [inhibitor, single point]"
COc1ccc(-n2c(=O)c3c(C)c(C)sc3n(CC(=O)NCc3ccc(C)cc3)c2=O)c(OC)c1,–,"inconclusive: 39.8 µM [activator, single point]"
O=C(NCc1ccc(F)cc1)C1CCCN(c2ncnc3onc(-c4ccc(F)cc4)c23)C1 (configuration not stated),inactive: 9.77%,–
CCOc1ccccc1CNC(=O)c1ccc(-c2nc(CSc3ccc(C)cc3)c(C)o2)cc1,–,"inconclusive: 39.8 µM [inhibitor, single point]"
COc1cccc(-n2c(SCC(=O)Nc3cccc(Cl)c3)nc3c(oc4ccccc43)c2=O)c1,–,active: 12.6 µM
Cc1cccc(NC(=O)c2c(C)cc(=O)oc2C)n1,–,"inconclusive: 39.8 µM [activator, single point]"
CCOc1cc(C2C3=C(CCCC3=O)N(CCC(=O)O)C3=C2C(=O)CCC3)ccc1OS(=O)(=O)c1ccc(C)cc1,–,"inconclusive: 31.6 µM [activator, single point]"
Cc1ccc(C(C)C)c(OCC(=O)Nc2ccc3c(c2)nc(CCNC(=O)c2ccco2)n3C)c1,inactive: -13.1%,–
CCCC1=Nc2cc(C(=O)NCc3ccccc3)ccc2Sc2ccccc21,inactive: 4.89%,–
CCOc1ccc(C2c3cc(OC)c(OC)cc3CC(=O)N2c2ccc(OC)cc2)cc1 (configuration not stated),–,"inconclusive: 31.6 µM [activator, single point]"
COc1ccc(OC)c(C2CC(=O)N3CN(c4cccc(Cl)c4)CSC3=C2C#N)c1 (configuration not stated),–,"inconclusive: 39.8 µM [inhibitor, single point]"
COc1ccc(-c2cnnc(N/N=C/C(C)=C/c3ccccc3)n2)cc1,–,active: 10 µM
COc1ccc(C(C)=O)cc1CSc1nnc(Nc2ccccc2)s1,–,"inconclusive: 39.8 µM [inhibitor, single point]"
CCOC(=O)C1CCN(C(=O)C2CCN(S(=O)(=O)c3c(C)noc3/C=C/c3ccc(C)cc3)CC2)CC1,–,"inconclusive: 10 µM [activator, partial curve]"
Cc1ccc(C(=O)c2oc3ccccc3c2NC(=O)c2cc(-c3ccccc3)on2)cc1,inactive: 1.16%,–
COc1nc(-c2ccccc2)ccc1-c1noc(-c2ccccc2)n1,–,"inconclusive: 0.01 µM [inhibitor, full curve, poor fit]"
CCOc1ccc(C2c3c(oc4cc(C)c(C)cc4c3=O)C(=O)N2CCCN(C)C)cc1OC (configuration not stated),–,"inconclusive: 39.8 µM [activator, single point]"
COc1ccc(NC(=O)Cn2c(=O)c3cccn3c3ccccc32)cc1,–,"inconclusive: 39.8 µM [activator, single point]"
